Among all 310,000 compounds or so, about 2,200 (0.71%) showed an effect of 50% or more. The effect is printed as a negative number. Some of the results follow.
Target: human ether-à-go-go-related gene (hERG) potassium channel (human, UniProt Q12809)
Test: primary screen, population patch clamp on CHO cells stably expressing hERG

Chain of human ether-à-go-go-related gene (hERG) potassium channel (Q12809 whole entry, looked up): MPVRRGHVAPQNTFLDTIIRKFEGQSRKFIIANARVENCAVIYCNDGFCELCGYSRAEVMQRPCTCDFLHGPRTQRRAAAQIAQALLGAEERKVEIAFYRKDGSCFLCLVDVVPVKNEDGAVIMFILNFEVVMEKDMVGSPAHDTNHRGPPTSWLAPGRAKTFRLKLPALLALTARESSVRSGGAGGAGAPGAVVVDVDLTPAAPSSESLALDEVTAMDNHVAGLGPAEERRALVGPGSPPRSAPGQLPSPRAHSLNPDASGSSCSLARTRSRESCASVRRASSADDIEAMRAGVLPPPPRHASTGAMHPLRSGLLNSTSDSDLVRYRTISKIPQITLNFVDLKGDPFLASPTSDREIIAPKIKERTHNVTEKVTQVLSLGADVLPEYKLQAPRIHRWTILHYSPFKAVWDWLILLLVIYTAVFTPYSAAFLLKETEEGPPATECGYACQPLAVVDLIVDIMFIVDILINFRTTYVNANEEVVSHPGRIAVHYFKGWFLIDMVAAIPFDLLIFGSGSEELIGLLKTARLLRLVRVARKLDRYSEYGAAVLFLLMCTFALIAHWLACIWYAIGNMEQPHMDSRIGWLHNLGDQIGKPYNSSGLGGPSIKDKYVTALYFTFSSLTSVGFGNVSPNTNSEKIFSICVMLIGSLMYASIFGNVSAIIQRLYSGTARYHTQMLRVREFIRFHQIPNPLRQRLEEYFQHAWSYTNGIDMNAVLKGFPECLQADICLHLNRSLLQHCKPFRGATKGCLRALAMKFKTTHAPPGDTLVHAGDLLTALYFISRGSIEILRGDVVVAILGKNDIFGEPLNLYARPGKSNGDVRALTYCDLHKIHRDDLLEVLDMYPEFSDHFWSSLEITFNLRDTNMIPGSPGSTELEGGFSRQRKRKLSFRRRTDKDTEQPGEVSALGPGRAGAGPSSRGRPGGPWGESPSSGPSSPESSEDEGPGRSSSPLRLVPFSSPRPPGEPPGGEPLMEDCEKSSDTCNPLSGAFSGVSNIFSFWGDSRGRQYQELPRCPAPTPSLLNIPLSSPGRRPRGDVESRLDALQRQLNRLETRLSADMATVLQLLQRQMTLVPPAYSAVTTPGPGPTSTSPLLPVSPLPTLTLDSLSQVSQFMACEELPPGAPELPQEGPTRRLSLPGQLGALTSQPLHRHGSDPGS

Row | SMILES | hERG current change (%, negative = inhibition) at 1uM
1 | OCC(CO)(CO)n1cnnn1 | 11.2%
2 | C[C@H](NC(=O)[C@H](Cc1ccccc1)n1c(=O)[nH]c2ccccc2c1=O)C(=O)N1CCC[C@H]1C(=O)O | 8.85%
3 | C/C(=C\C(=O)Nc1cscc1C)C(=O)O | 10.3%
4 | Cc1ccc(N(CC(=O)N2CCN(c3ccc(F)cc3)CC2)S(=O)(=O)c2c(C)nn(C)c2C)cc1 | -13.8%
5 | O=C(CSc1nc2ccccc2c(=O)n1Cc1ccccc1)Nc1ccc(Br)cc1C(=O)O | 13.5%
6 | O=C(CCCN1C(=O)c2cccc3cccc(c23)C1=O)N1CCN(c2ccccc2O)CC1 | 0.696%
7 | Cc1ccc(C)c(C(=O)COC(=O)c2ccc(C)c(S(=O)(=O)N3CCOCC3)c2)c1 | 4.65%
8 | CCN(C(=O)c1c(N)cnn1C)c1ccccc1 | 1.72%
9 | CC1CCN(C(=O)NC(=O)c2ccc(Cl)cc2)CC1 | 12.4%
10 | Cc1ccc(C)c(NC(=S)NCc2cccs2)c1 | -1.6%
11 | Cc1cccc(Nc2n[nH]c(C)c2[N+](=O)[O-])c1 | 12%
12 | COc1ccc(OC)c(/C=C/c2c([N+](=O)[O-])c(=O)n(C)c(=O)n2C)c1 | 4.85%
13 | COc1ccc2ccccc2c1CNC(C)c1ccccc1.O=C(O)C(=O)O (stereo not drawn) | 8.43%
14 | Cc1cccc(C)c1NC(=O)CCS(=O)(=O)c1ccc(Br)cc1 | 21.6%
15 | CCn1ncc(/C=N\NC(=O)c2ccc3c(c2)c(C)c(C)n3Cc2ccccc2)c1C | 5.11%
16 | Cc1cc2oc(=O)cc(CSc3nc(N)cc(N)n3)c2cc1C(C)C | 8.33%
17 | COC(=O)[C@H](C)NC(=O)Nc1ccc(Oc2ccccc2)cc1 | 7.78%
18 | Cc1ccc(Nc2nc(CSc3nnc(-c4ccccc4)n3C)cs2)cc1 | 6.99%
19 | CCc1ccc(NC(=S)Nc2cccc(OC)c2)cc1 | 14.1%
20 | Cc1ccc(-n2c(C3CC3c3ccc(Cl)cc3)n[nH]c2=S)cc1 (stereo not drawn) | 10.6%
21 | COc1ccc(N2C(=O)/C(=C\c3ccco3)N=C2SCC(=O)NC(C)C)cc1Cl | 5.53%
22 | COc1ccc(C(C(=O)NC(C)(C)C)N(CC2CCCO2)C(=O)CCC(=O)Nc2cc(C)on2)cc1 (stereo not drawn) | 14.1%
23 | Cc1nn(C)c(C)c1S(=O)(=O)N1CCC(CO)(CC2CCCCO2)CC1 (stereo not drawn) | -7.4%

Row | SMILES | hERG current change (%, negative = inhibition) at 1uM
24 | CCOc1cc(C(=O)N=c2sccn2C)ccc1OC(F)F | 13.9%
25 | Cc1ccc(C(=O)NCCSCc2ccc(Cl)cc2Cl)cc1[N+](=O)[O-] | 11.9%
26 | COc1ccc(/C=C(\C#N)C(=O)NCCc2ccccc2)cc1OCc1ccccc1 | -1.12%
27 | CC(OC(=O)CNC(=O)c1ccc(Br)cc1)C(=O)NC1CCCCC1C (stereo not drawn) | 3.25%
28 | CC(C)CC(=O)Nc1ccccc1Oc1ccccc1 | 8.11%
29 | CCOc1cccc(-c2cc(C(=O)NN)[nH]n2)c1 | 11%
30 | COC(=O)c1c(NC(=O)CCN2CCOCC2)sc2c1CCCC2 | -5.47%
31 | COCCNC(=O)c1ccc2c3n(nc2c1)-c1ccc(C)cc1CO3 | -0.831%
32 | Cc1ccc(C)c2nc(SCC(=O)N3CCCc4ccccc43)c(C#N)cc12 | 8.95%
33 | S=C(NCc1ccc(Cl)cc1Cl)NC1CCCCC1 | 18.5%
34 | CCC(C(=O)N1CCN(C(=O)c2ccco2)CC1)n1sc2ccccc2c1=O (stereo not drawn) | 1.67%
35 | COc1ccc(Cl)cc1C(=O)NCCCN1CCOCC1 | 16.2%
36 | NC(=O)C1CCN(CC(=O)Nc2nc(-c3ccccc3)cs2)CC1 | 7.81%
37 | COc1ccc(N2CCN(S(=O)(=O)CCNC(=O)C3CC(=O)N(c4ccccc4)C3)CC2)cc1 (stereo not drawn) | 18.3%
38 | COC(=O)c1ccc(S(=O)(=O)N(CCO)Cc2ccccc2)n1C | 14.4%
39 | CCC1(CC)N=C(c2ccccc2)C(=S)N1 | 5.62%
40 | O=C(CCN1C(=O)/C(=C/c2cccc(Br)c2)SC1=S)NNC(=O)c1cccnc1 | 14.1%
41 | Cc1sc2ncnc(N3CCC(C(=O)Nc4cc(Cl)ccc4Cl)CC3)c2c1C | 9.99%
42 | CN(C)S(=O)(=O)N1CCC(Oc2cccc(C(=O)N3CCSCC3)c2)CC1 | 4.68%
43 | CCCCC[C@H](O)/C=C/[C@H]1CCC(=O)[C@@H]1CCCCCCC(=O)N1CCCCC1CO (stereo partly drawn) | 12.9%
44 | O=C(Nc1cccc(F)c1)C1CCCN(S(=O)(=O)c2cccc3cccnc23)C1 (stereo not drawn) | 18.9%
45 | Cn1ncc(Oc2ccc([N+](=O)[O-])cc2)c(Cl)c1=O | -6.15%
46 | Cc1cccc(N2CC(C(=O)Nc3nnc(SCc4cccnc4)s3)CC2=O)c1 (stereo not drawn) | -1.45%

Row | SMILES | hERG current change (%, negative = inhibition) at 1uM
47 | COc1ccc(NCc2nnc(SCC#N)n2-c2ccccc2OC)cc1 | 8.09%
48 | CSc1nc(C)c(Cl)c(C)c1C#N | -2.08%
49 | NC(=O)C1CCN(C(=O)c2ccc(Oc3cc(Cl)cc(Cl)c3)o2)CC1 | 11%
50 | CCOC(=O)N1CCN(C(=O)c2ccc(N(Cc3ccc(C)cc3)S(C)(=O)=O)cc2)CC1 | -7.28%
51 | O=S(=O)(c1ccc(-c2ccon2)s1)N1CCN(c2ccncc2)CC1 | 5.22%
52 | Cc1ccccc1NC(=O)CSc1nnc(-c2ccco2)c(-c2ccco2)n1 | 1.63%
53 | N#C/C(=N/O)c1nc(-c2ccc(F)cc2)cs1 | 10.4%
54 | COc1cc2c(cc1OC)CN(C(=O)c1cc(Cl)nc(Cl)c1)CC2 | 14.1%
55 | CCCSCCCNC(=O)c1cc2c(s1)CS(=O)(=O)C2 | 11%
56 | O=C(O)/C=C/c1cn(Cc2ccccc2)nc1-c1ccccc1 | 8.95%
57 | CCOC(=O)[C@H]1[C@H]2COc3cc(OC)ccc3[C@@H]2N2C(=O)c3cc(F)ccc3NC(=O)[C@@]12C | 17.3%
58 | Cc1cccc(C(=O)Nc2nnc(Cc3ccccc3)s2)c1 | 13.3%
59 | O=C1CSC(=S)N1c1cccc(Cl)c1 | 16.6%
60 | Cc1ccccc1C(=O)Nn1c(C)ccc1C | 11.2%
61 | CC1=C(C(=O)OCC(C)C)C23C(=O)c4ccccc4C2(O1)OC(N)=C3C#N (stereo not drawn) | 10.3%
62 | COc1ccc(CCn2c(C)c(C(C)=O)c3cc(OC(=O)c4ccco4)ccc32)cc1OC | 14.1%
63 | CCOc1ccc(NC(=O)c2cc(C)nc3ccccc23)cc1 | 0.102%
64 | CCC(C)N(C(=O)c1csnn1)C(C(=O)NCc1ccc(F)cc1)c1ccccc1F (stereo not drawn) | 12%
65 | Cc1ccc(C(=O)Nc2ccc(C(=O)NCC3CCCO3)cc2)cc1 (stereo not drawn) | 18.7%
66 | COC(=O)c1cnn(-c2ccc(Cl)cc2)c1/C=N/NC(N)=S | 14.8%
67 | CCn1c(NC(=O)c2cccs2)c(-c2cccs2)c(=O)c2ccccc21 | 4.43%
68 | O=C1CCN(Cc2ccccc2)S(=O)(=O)c2ccc(C(F)(F)F)cc21 | 8.82%
69 | CC(=O)c1cccc(NC(=O)Cc2coc3cc4c(cc23)CCC4)c1 | 11.5%

Row | SMILES | hERG current change (%, negative = inhibition) at 1uM
70 | COc1ccccc1CNC(=O)c1cc(C)nn1-c1ccccc1 | 11.9%
71 | CCCCCn1c(CNC(=O)COC)nc2ccccc21 | -1.45%
72 | CCN(C(=O)COC(=O)COc1ccc(Cl)c(C)c1)C1CCS(=O)(=O)C1 (stereo not drawn) | -9.42%
73 | COC(=O)c1sccc1NC(=O)CCC1CCCCC1 | 5.13%
74 | Cn1cccc1C(=O)OCc1cc(-c2ccco2)on1 | 15.3%
75 | CC(=O)c1ccc(OCc2cc(C(=O)N(C)Cc3ccon3)no2)cc1 | -0.087%
76 | Cc1ccccc1C(=O)NCC(=O)Nc1ccccc1C(F)(F)F | 15.2%
77 | N#Cc1ccc(OCC(=O)Nc2nc(-c3ccncc3)cs2)cc1 | 1.01%
78 | COc1ccccc1N1CCN(C(=O)CCc2ccc(S(=O)(=O)NCC(C)C)cc2)CC1 | 2.51%
79 | CCOc1ccc(S(=O)(=O)N(CC(=O)NCC2CCCO2)c2ccc(F)cc2)cc1 (stereo not drawn) | -1.26%
80 | C=CCSc1nnc(NC(=O)CCNC(=O)c2ccco2)s1 | -0.919%
81 | Cc1ccc(CN(C)C(=O)c2ccccc2Oc2ccccc2)o1 | 7.1%
82 | O=C(Nc1ccc(F)cc1F)N1CCCN(c2ccc([N+](=O)[O-])cn2)CC1 | -5.95%
83 | Cc1cc([N+](=O)[O-])ccc1N | 6.84%
84 | NC(=O)c1ccc(Cc2ncc(C(F)(F)F)cc2Cl)s1 | 13.7%
85 | O=C(NCc1ccccc1)C1=C[C@H](c2coc3ccccc3c2=O)C[C@H](OCCCCO)O1 | -26.8%
86 | O=[N+]([O-])c1cccnc1N1CCCNCC1 | -1.75%
87 | O=C(N/N=C/c1cccs1)C1COc2ccccc2O1 (stereo not drawn) | 5.09%
88 | CN1CCN(C(=S)Nc2ccc(Oc3ccccc3)cc2)CC1 | 3.76%
89 | O=C(CCNC(=O)c1ccccc1Cl)NNC(=O)c1ccccc1O | 14%
90 | O=C(CCc1ccccc1)Nc1nc2c(F)cc(F)cc2s1 | 10.3%
